Sequences with one replicate were seen in a single cluster, so their values are uncertain.
Test system: ATP
Assay: switch fluorescence ratio, 500 uM ATP over buffer (Cy3 cluster intensity, sum of 5 cycles each) (fold (ratio)); higher = stronger signal-on switching upon ATP binding; sequences stand for … in TCGTCGGCAGCGTCAGATGTGTATAAGAGACAGTTTTTTTTTTTTTTTTTTTTTTTTT…TC
Conditions: aptamer strand: ATP DNA aptamer (quencher-CACCTGGGGGAGTATTGCGGAGGAAGG + anchor), 100 nM annealed; ATP concentration: 500 uM; one replicate
In short: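 After annealing to 100 nM quencher-labelled ATP aptamer, Cy3-labelled switching-strand clusters on a modified Illumina MiSeq flow-cell were imaged in selection buffer. A second image followed after 15 min with 500 uM ATP at 22 °C, and five such buffer/ATP cycles were done, each separated by NaOH stripping and re-annealing. The fluorescence ratio, averaged per switch-domain sequence, is summed target-cycle over summed buffer-cycle Cy3 intensity per cluster, with clusters outside 100-1000 RFU excluded.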
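Note: ATP exposure 15 min at 22 °C before imaging.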

GGTGTCATGT was tested, and the switch fluorescence ratio was 0.973.
AACTCCTTCT was tested, and the switch fluorescence ratio was 1.17.
CCCCCACATC gave a switch fluorescence ratio of 1.81.
For GGCCAGAATC, the switch fluorescence ratio was 0.986.
For CTTATGAACG, the switch fluorescence ratio was 1.01.
For GCTCGTGGGA, the switch fluorescence ratio was 1.03.
In the case of GAGGCCCTGG, the switch fluorescence ratio is reported as 1.04.
Sequence CATAAGTTC has a switch fluorescence ratio of 1.07.
TGAGTGAAAA was tested, and the switch fluorescence ratio was 1.02.
CGTCCATGCG gave a switch fluorescence ratio of 0.986.
GAACACGGGG gave a switch fluorescence ratio of 0.934.
With AGTTCTTCCA the switch fluorescence ratio was 1.01.
Work on CCGCCTCGAG yielded a switch fluorescence ratio of 1.39.
Work on CACTAACTGA yielded a switch fluorescence ratio of 1.12.
With AAACTGCGAC the switch fluorescence ratio was 1.18.
For CGTGAGATCC, the switch fluorescence ratio was 1.
CTATGGCCTT showed a switch fluorescence ratio of 0.987.
CGTCAATCCA gave a switch fluorescence ratio of 1.09.
CATACCACAC showed a switch fluorescence ratio of 1.53.
In the case of AAAATTAGCA, the switch fluorescence ratio is reported as 1.01.
TCCATCTCAG showed a switch fluorescence ratio of 1.05.
Sequence CCTATGCCCC has a switch fluorescence ratio of 1.12.
Sequence GTGTGGTACT has a switch fluorescence ratio of 0.955.
Work on GCAACTCAGA yielded a switch fluorescence ratio of 1.02.
AATATGATTA gave a switch fluorescence ratio of 1.
Sequence CTTCGCCCTG has a switch fluorescence ratio of 1.18.
For ATCCGCGTTT, the switch fluorescence ratio was 1.64.
Sequence ATACCAAGCG has a switch fluorescence ratio of 0.974.
Work on TACGACATT yielded a switch fluorescence ratio of 1.14.
In the case of GACATGCGAA, the switch fluorescence ratio is reported as 1.03.
GAGGGCAAAG showed a switch fluorescence ratio of 0.977.
GCGATCTGTG was tested, and the switch fluorescence ratio was 1.
Work on CTATGCTAGC yielded a switch fluorescence ratio of 1.17.
With GAGGCGCCTG the switch fluorescence ratio was 0.931.
For CGACACTAAC, the switch fluorescence ratio was 1.81.
TTGATGGAGG was tested, and the switch fluorescence ratio was 0.977.
AGTACCAAGT was tested, and the switch fluorescence ratio was 1.
CACAACACTA gave a switch fluorescence ratio of 1.25.
With CAACGAATGG the switch fluorescence ratio was 1.05.
Sequence CACGATGTTT has a switch fluorescence ratio of 0.992.
In the case of ACCGTCCACA, the switch fluorescence ratio is reported as 1.25.
TCGTACAGGT gave a switch fluorescence ratio of 1.04.
For AATGTGACTG, the switch fluorescence ratio was 0.98.
Sequence TGTGCCAGTG has a switch fluorescence ratio of 1.03.
Work on GTGGGAAA yielded a switch fluorescence ratio of 1.02.
In the case of GGGCGTGATA, the switch fluorescence ratio is reported as 1.05.
For CTCTTCCGTT, the switch fluorescence ratio was 0.956.
TCGATAAGTT gave a switch fluorescence ratio of 1.02.
AGAGCGTGAT gave a switch fluorescence ratio of 0.984.
GATTACTCTA showed a switch fluorescence ratio of 1.06.
CAGCGAAAAT was tested, and the switch fluorescence ratio was 1.02.
CTACATTGGG showed a switch fluorescence ratio of 1.01.
GAAGGAAATT was tested, and the switch fluorescence ratio was 0.944.
Work on GAATACGGGT yielded a switch fluorescence ratio of 1.02.
Work on GTCAACTCCG yielded a switch fluorescence ratio of 1.18.
Sequence CGCGACAGGC has a switch fluorescence ratio of 1.02.
With TTACGCCCCG the switch fluorescence ratio was 1.02.
In the case of CGCAGAGCGC, the switch fluorescence ratio is reported as 1.05.
Work on ATTTGGCTTG yielded a switch fluorescence ratio of 1.01.
CAACCTTATG was tested, and the switch fluorescence ratio was 1.
In the case of ATCATGTTTT, the switch fluorescence ratio is reported as 0.968.
GACCAAGGGG showed a switch fluorescence ratio of 1.15.
With TAGAGGAAAC the switch fluorescence ratio was 1.01.
Sequence AGTTAACTCC has a switch fluorescence ratio of 1.09.
For ATGGTGGTAT, the switch fluorescence ratio was 1.
TTTCATTCAG gave a switch fluorescence ratio of 1.01.
CGAGTGGGCG showed a switch fluorescence ratio of 1.1.
Work on TGGTGCGTTT yielded a switch fluorescence ratio of 0.993.
CTTCGGACGA showed a switch fluorescence ratio of 1.08.
GTTGAGTCTA was tested, and the switch fluorescence ratio was 1.01.
CCGGGGTAGC showed a switch fluorescence ratio of 1.19.
GCCCTTCTAC showed a switch fluorescence ratio of 1.02.
GGGTCACGTC gave a switch fluorescence ratio of 0.967.
Work on GAGGGATGG yielded a switch fluorescence ratio of 1.
CCTTTTAAGG showed a switch fluorescence ratio of 1.02.
For CATGAACTTT, the switch fluorescence ratio was 1.05.
TGCCTCATCG was tested, and the switch fluorescence ratio was 1.05.
Sequence ATACCGCCTG has a switch fluorescence ratio of 1.05.
CCGGGCGGAG gave a switch fluorescence ratio of 1.06.
In the case of TGATTATATC, the switch fluorescence ratio is reported as 1.04.
For GCTCGATCGT, the switch fluorescence ratio was 1.03.
Sequence TAGTAAGGCC has a switch fluorescence ratio of 1.
Work on AACGGATGTC yielded a switch fluorescence ratio of 0.982.
AGTAAAAACG showed a switch fluorescence ratio of 0.977.
Work on TGCTCCTCAG yielded a switch fluorescence ratio of 1.24.
For TAGGCTGCAC, the switch fluorescence ratio was 1.04.
GGTCTACAGC was tested, and the switch fluorescence ratio was 1.03.
With ATAGGCCATC the switch fluorescence ratio was 0.981.
In the case of AAGATAGGTA, the switch fluorescence ratio is reported as 1.04.
With ATAGGTTAAC the switch fluorescence ratio was 0.957.
With ACTGAAGACT the switch fluorescence ratio was 1.02.
GTTCAGAATT was tested, and the switch fluorescence ratio was 1.01.
With AACGAGAGAC the switch fluorescence ratio was 1.07.
AACTCGCT showed a switch fluorescence ratio of 0.991.
Work on GCTACACTGG yielded a switch fluorescence ratio of 1.04.
For AATTTACTTT, the switch fluorescence ratio was 1.1.
With TGATACTCAA the switch fluorescence ratio was 0.995.
CTTCAGCCGA gave a switch fluorescence ratio of 1.12.
With TACTAGTCCG the switch fluorescence ratio was 1.04.
TTTCATGTAC gave a switch fluorescence ratio of 1.21.
AAAGAATTGC was tested, and the switch fluorescence ratio was 1.03.
With CGTAGACAAT the switch fluorescence ratio was 1.43.
Sequence GATGAGAGCC has a switch fluorescence ratio of 0.976.
Sequence GCGATTAGCT has a switch fluorescence ratio of 1.04.
ATACAGAGGC was tested, and the switch fluorescence ratio was 1.02.
CTAGTTTTAA gave a switch fluorescence ratio of 0.988.
In the case of CCCTTTGTTA, the switch fluorescence ratio is reported as 1.03.
AGTGTCGGCT gave a switch fluorescence ratio of 1.03.
Work on GGCTGCTCGC yielded a switch fluorescence ratio of 0.982.
With CGGCTGGTGC the switch fluorescence ratio was 1.05.
Sequence TTACGTAAG has a switch fluorescence ratio of 1.08.
ATCAGAGGAG showed a switch fluorescence ratio of 0.989.
For GAATTGCATA, the switch fluorescence ratio was 0.988.
AAGCATGGTT was tested, and the switch fluorescence ratio was 0.991.
Work on ATGGCTGTAA yielded a switch fluorescence ratio of 0.972.
Sequence GTATGAGTAA has a switch fluorescence ratio of 0.998.
Sequence CTGCGGTCAG has a switch fluorescence ratio of 1.
For ACGTTATATC, the switch fluorescence ratio was 1.24.
GTAGGAGCGA gave a switch fluorescence ratio of 0.973.
In the case of ATAGTTCCTG, the switch fluorescence ratio is reported as 1.01.
For ATGAATCGCA, the switch fluorescence ratio was 1.07.
In the case of AACTTGTCTA, the switch fluorescence ratio is reported as 1.03.
Work on ACGCTAATGG yielded a switch fluorescence ratio of 1.48.
For CGAGGCTCTT, the switch fluorescence ratio was 1.04.
In the case of AGGCGCATGG, the switch fluorescence ratio is reported as 1.05.
For GTCAATAACG, the switch fluorescence ratio was 1.04.
In the case of ATCTGCGCTT, the switch fluorescence ratio is reported as 1.11.
With GCTACGGAGT the switch fluorescence ratio was 1.06.
Work on GGTCTCAGCA yielded a switch fluorescence ratio of 0.972.
CAATGTAAGT gave a switch fluorescence ratio of 1.01.
In the case of TAGTGCACGT, the switch fluorescence ratio is reported as 1.01.
TTAACAATAT was tested, and the switch fluorescence ratio was 1.06.
For TCGGAGGT, the switch fluorescence ratio was 0.987.
CTGGGGACTA was tested, and the switch fluorescence ratio was 1.02.
Work on GTGATAAGTA yielded a switch fluorescence ratio of 0.982.
For GTTACTATGT, the switch fluorescence ratio was 0.955.
In the case of GCTATAGACA, the switch fluorescence ratio is reported as 1.05.
Sequence TTGGCGCAAG has a switch fluorescence ratio of 1.07.
Sequence GCGGTCTTCG has a switch fluorescence ratio of 0.999.
CTTCAACGGG showed a switch fluorescence ratio of 1.
CAGAAGCGTT was tested, and the switch fluorescence ratio was 1.06.
For CAATATTAAT, the switch fluorescence ratio was 1.03.
With CACGTGCGCT the switch fluorescence ratio was 1.03.
TACGGTAATT was tested, and the switch fluorescence ratio was 1.09.
Work on AAAAGACACC yielded a switch fluorescence ratio of 1.02.
ACTATAGCA gave a switch fluorescence ratio of 1.05.
Work on AACCAGACAC yielded a switch fluorescence ratio of 1.06.
AAAGCGTCCT was tested, and the switch fluorescence ratio was 1.12.
For ATTCATACAT, the switch fluorescence ratio was 1.03.
GTTGCTCAGC showed a switch fluorescence ratio of 1.04.
In the case of TAAAGGGGTC, the switch fluorescence ratio is reported as 0.95.
Sequence TCTGCTGGCT has a switch fluorescence ratio of 1.04.
AGGCACAGGC was tested, and the switch fluorescence ratio was 1.08.
TCTGCAAAGA showed a switch fluorescence ratio of 1.04.
ATGGTAATAG was tested, and the switch fluorescence ratio was 1.03.
Work on AAACTTAACA yielded a switch fluorescence ratio of 1.16.
With TTCCGTACGC the switch fluorescence ratio was 1.59.
TTCCGGACTT was tested, and the switch fluorescence ratio was 1.24.
With TAGTGGACAG the switch fluorescence ratio was 1.05.
With TTGAAGCGCT the switch fluorescence ratio was 1.77.
ATGATCTGGT was tested, and the switch fluorescence ratio was 0.99.
With TCTTGTAAGC the switch fluorescence ratio was 1.03.
In the case of GGAGTGCTAT, the switch fluorescence ratio is reported as 0.99.
In the case of TTACGCTCAA, the switch fluorescence ratio is reported as 1.16.
AGCTTGGCGC was tested, and the switch fluorescence ratio was 1.02.
Sequence GTGGGTGGAG has a switch fluorescence ratio of 0.985.
With TCAAACGATA the switch fluorescence ratio was 1.04.
For TACAGCCGTT, the switch fluorescence ratio was 0.982.
For TTCATAGTTT, the switch fluorescence ratio was 0.963.
Sequence TTTTACTTAT has a switch fluorescence ratio of 1.05.
GGTTCGAGTT gave a switch fluorescence ratio of 0.981.
AGTCGATACC showed a switch fluorescence ratio of 1.11.
For CCGGGCGCGT, the switch fluorescence ratio was 1.85.
TTGGCACTAT was tested, and the switch fluorescence ratio was 1.11.
With GAGGGTTTGC the switch fluorescence ratio was 0.968.
Work on TTATGTTTCG yielded a switch fluorescence ratio of 1.01.
ATAGTCCTAC was tested, and the switch fluorescence ratio was 1.05.
For CCCAAGAT, the switch fluorescence ratio was 1.18.
With TCAAGCCTTA the switch fluorescence ratio was 0.956.
With TCGGGGTTAG the switch fluorescence ratio was 0.986.
Sequence AGGGTGATTC has a switch fluorescence ratio of 1.02.
CAGGGACGTG showed a switch fluorescence ratio of 1.03.
Sequence AGGCAGGAG has a switch fluorescence ratio of 1.
Sequence CAGCTGAACA has a switch fluorescence ratio of 1.03.
In the case of CGTCCCGCGG, the switch fluorescence ratio is reported as 1.21.
GTCTAAAATG was tested, and the switch fluorescence ratio was 0.942.
With CAAAGTGCAG the switch fluorescence ratio was 1.01.
With TTACCCGTGG the switch fluorescence ratio was 0.979.
Sequence CAGATAGGT has a switch fluorescence ratio of 0.984.
With AAATAGAAAG the switch fluorescence ratio was 1.01.
GCTCCACGGG was tested, and the switch fluorescence ratio was 1.7.
In the case of AATTTCACGT, the switch fluorescence ratio is reported as 1.06.
CCCGACCCGT gave a switch fluorescence ratio of 1.09.
ATACTTGGGG gave a switch fluorescence ratio of 1.02.
Sequence CTTCTAGCGG has a switch fluorescence ratio of 1.06.
For ATTTATTACT, the switch fluorescence ratio was 0.997.
Work on GTGAGTATCA yielded a switch fluorescence ratio of 0.956.
Work on AAATGACTCC yielded a switch fluorescence ratio of 1.22.
For GTATGGTATT, the switch fluorescence ratio was 1.02.
Sequence GACTTTGCGG has a switch fluorescence ratio of 1.02.

Source: the supplement of paper PMC10126150
